For the assay, the system named is alcohol dehydrogenase from Lyngbya sp., wild type, SEQ ID NO: 1. In words: Km determination of native Adh in cell extract (forward and back reaction), Lyngbya sp. The settings on record: as Example 4: 0.15 mM NADPH, pH 7.5, 30° C.; FIG. 15A. It counts as biochemical.

These results are taken from patent US9493795B2 (Algenol Biofuels Inc., priority 2013, dated 2016).

Structures are written as SMILES.

For `CCC=O` [propanal], the “Vmax (propanal)” value was “approximately 0.035 μmol per mg protein and min”.
